In PubChem BioAssay AID1963576 (National Center for Advancing Translational Sciences (NCATS), 2024):
In all, about 46,000 compounds went through this assay and about 60 (0.1%) were called active. Not shown: some 3% with an inconclusive outcome. Calls follow the shape of the dose curve; as a rule, active = well fitted inhibition curve with a large enough effect; inconclusive = small, poorly fitted or top-dose-only effect; inactive = no such curve, though single readings can be large or run the other way. This is one part of the list.

Assay: Primary qHTS assay for Inhibitors of ovarian cancer metastasis using an organotypic tumor microenvironment (TME) model. Also: nearly all actives have a fitted effect of over 65% in size.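 As to activity change, negative = inhibition: plate controls were DMSO wells for no effect and tomatine positive control wells for full effect.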
Conditions: SKOV3ip1-GFP adhesion/invasion on 3D omental model, fluorescence; series mostly up to 45.8 µM; activity change, negative = inhibition: at the top concentration
Outline: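 Adhesion/invasion was scored as fixed GFP-labeled SKOV3ip1 cell counts (488/509 nm), normalized to DMSO and tomatine controls. Cancer cells in serum-free medium, with four compound doses (0.36-46 umol/L), sat 2 hr at RT then 16 hr at 37 C on a 48 hr fibroblast/mesothelial/ECM culture.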

Activity change, negative = inhibition, inactive:
Cc1nn(C(=O)c2cccc(F)c2)c(C)c1S(=O)(=O)N1CCOCC1 42%, O=C(C1CCN(c2ncnc3c2nc2n3CCCCC2)CC1)N1CCN(c2ccc(Cl)cc2)CC1 -5.41%, CCNC(=O)c1cc2n(n1)CCCN(Cc1ccc(C)cc1)C2=O 4.7%, COc1ccc(CCNC(=O)c2cc3c(=O)oc4ccc(C)cc4c3s2)cc1OC 3.29%, CCc1nn2c(=O)c(S(=O)(=O)Nc3ccc(Br)cc3F)c(C)nc2s1 9.92%, O=C(NC1CCCCC1)c1ccc(CSc2nc3ccncc3n2Cc2ccc(F)cc2)cc1 3.41%, Cc1ccccc1NC(=O)Cn1nnc(C(=O)NCCc2ccccc2)c1N 25.8%, Cc1cc(C)c(NC(=O)c2c(C)nn(-c3ccc(F)cc3)c2-n2cccc2)c(C)c1 -0.437%, CN1CCN(C(=O)Cn2ncc3c4ccccc4n(Cc4ccc(Cl)cc4)c3c2=O)CC1 -0.082%, O=C(CSc1nccn1Cc1ccc(F)cc1)NCc1ccc(F)cc1 -18%, CS(=O)(=O)N1CCc2cc(C(=O)N3CCN(c4ccccc4F)CC3)ccc21 -23%, O=C(CCSCc1ccc(Cl)cc1)NCc1ccc(F)cc1Cl 4.59%, COc1ccccc1CNc1nc2c(S(=O)(=O)c3ccccc3)nnn2c2ccc(Cl)cc12 -2.85%, COc1ccc(C2C=C(c3ccc(Br)cc3)Nc3nnnn32)c(OC)c1 (stereo not given) -16.8%, COc1ccc(Nc2cc(C(=O)NC3CCCC3)c3ccccc3n2)cc1 1.14%, Cc1ccc(NC(=O)c2c(NC(=O)c3ccccc3Cl)sc3c2CCC3)cc1 3.76%, CSc1nc(=O)c2c(n1C)NC(=O)CC2c1cc(F)cc(F)c1 (stereo not given) 29.8%, NC(=O)c1nn2c(C(F)(F)F)cc(-c3ccc(Br)cc3)nc2c1Cl -3.4%, COc1ccc(C2C(C(=O)Nc3ccc(C)cc3C)=C(C)Nc3nc(SCc4cccc(C)c4)nn32)c(OC)c1 (stereo not given) 41.5%, COc1ccccc1CNC(=O)CSc1nc(=O)[nH]c2c1CCC2 3%, CC1=C(C(=O)Nc2ccc(C)cc2C)C(c2ccc(Br)cc2)n2ncc(C(=O)Nc3cccc(C)c3)c2N1 (stereo not given) 1.33%, COc1ccccc1-c1nn2c(=O)cc(CN3CCN(C(=O)/C=C/c4ccccc4)CC3)nc2s1 -3.91%, CN(C)c1ccc(Nc2nc3ccccc3n3nnnc23)cc1 3.54%, CCCCCn1c(CNC(=O)c2ccccc2)nc2ccccc21 -12.3%, CCc1ccc(S(=O)(=O)NCc2nc3cccnc3n2Cc2cccc(OC)c2)cc1 9.37%, CCN(CC)c1ccc(-n2nc3cc(C)c(NC(=O)c4ccccc4C)cc3n2)c(C)c1 0.401%, COc1ccc(S(=O)(=O)c2nnn(-c3ccc(C(C)C)cc3)c2C)cc1 1.08%, Cc1cc(C)c(S(=O)(=O)N2CCN(Cc3ccc4c(c3)OCO4)CC2)cc1C 1.01%, Cc1c(Cl)cccc1Nc1nn2c(=O)c3ccc(C(=O)NCCC4=CCCCC4)cc3nc2s1 2.46%, Cc1ccccc1Cn1c(=O)n(CC2CCC(C(=O)N3CCOCC3)CC2)c(=O)c2sccc21 (stereo not given) 4.14%, CCOc1ccc(C2C(=O)N(C3CCCCC3)CC(=O)N2CCc2ccccc2)cc1OC (stereo not given) 0.109%, Oc1ccc(-c2nc3ccc(Cl)cn3c2Nc2ccc3c(c2)OCO3)cc1 2.51%, Cc1ccc(-n2c(=O)c3c(C)c(C)sc3n(Cc3ccc(F)cc3Cl)c2=O)cc1C 28.6%, O=C1CC(=O)Nc2cc(S(=O)(=O)N3CCOc4ccc(Cl)cc43)ccc2N1 2.68%, COc1ccc(N(C(=O)c2ccccc2)S(=O)(=O)c2ccc3c(c2)n(C)c(=O)n3C)cc1 7.04%, O=C(NCc1ccc(Cl)cc1)C1CCN(S(=O)(=O)c2ccccc2)CC1 10.2%, CC(=O)c1ccc(NC(=O)Cn2ncc3c4ccccc4n(Cc4ccccc4)c3c2=O)cc1 -16.1%, COc1cc(C(=O)NCc2nc3cccnc3n2Cc2ccc(C)cc2)cc(OC)c1OC 1.14%, Cc1cc(C)c(NS(=O)(=O)c2ccc(-c3coc(C)n3)cc2)c(C)c1 -5.26%, CCN1CCN(C(c2ccccc2Cl)c2c(O)cc(C)n(Cc3ccco3)c2=O)CC1 (stereo not given) -0.981%, Cn1c(=O)c2c(ncn2Cc2ccc(Cl)cc2)n(C)c1=O -5.14%, O=C(Cn1c(=O)n2nc(-c3cccc(F)c3)nc2c2ccccc21)N1CCN(c2ccc(F)cc2)CC1 2.99%, O=C(NC1CC(=O)N(c2ccc(F)cc2)C1)c1ccc2c(c1)OCO2 (stereo not given) -6.26%, COc1ccccc1CNC(=O)CCn1cnc2ccccc2c1=O 1.56%, O=C(c1ccc2c(c1)N(Cc1cccc(Cl)c1)C(=O)c1ccccc1S2=O)N1CCN(c2cccc(C(F)(F)F)c2)CC1 (stereo not given) 7.93%, COc1ccc(N2CCN(C(=O)CNS(=O)(=O)c3ccc(Br)s3)CC2)cc1 3.13%, Cc1cccc(N2CCN(C(=O)c3noc4c3CCCCC4)CC2)c1C -9.71%, COc1ccccc1NC(=O)c1cn(-c2ccccc2)nc1-c1ccccc1 -1.35%, Cc1cc(C(=O)C(=O)Nc2nncs2)c(C)n1-c1ccc(Cl)cc1 4.25%, CCc1ccc(NC(=O)Cn2c(=O)n(-c3cc(OC)c(OC)c(OC)c3)c(=O)c3ccccc32)cc1 -8.48%, COc1ccc(CNC(=O)CCCn2nc(C)c3c(C)n(-c4ccc(C)cc4)nc3c2=O)cc1OC 9.77%, Cc1ccc(-n2ncc3c(NC4CCCCC4)ncnc32)cc1Cl 6.5%, CCOc1cc(CNC(=O)c2ccc3c(c2)N(C)C(=O)C2CCCCN32)ccc1OC (stereo not given) -6.25%, COc1ccc(OC)c(NC(=O)CN2CCCN(Cc3ccccc3Cl)S2(=O)=O)c1 -5.2%, O=C(CNC(=O)c1ccc(F)cc1)OCc1cc(=O)n2nc(C3CCCCC3)sc2n1 86.1%, CN1CCC(COc2cnc(-c3cccc(Cn4nc(-c5cccc(C#N)c5)ccc4=O)c3)nc2)CC1 6.43%, CCOc1ccc(CNC(=O)CCS(=O)(=O)c2cc3c4c(c2)CCN4C(=O)CC3)cc1OC -9.84%, CC(C)c1cc(C(=O)N2Cc3ccc(CN4CCN(C)CC4)cc3C2)c(O)cc1O 4.68%, O=C(CSc1nccn1Cc1ccco1)Nc1cc(C(F)(F)F)ccc1Cl -4.28%, CCN(c1ccccc1)c1nnc(NC(=O)Nc2ccc(Br)c(C)c2)s1 -6%, CCc1ccc(S(=O)(=O)c2cn(CC)c3cc(N4CCCCC4)c(F)cc3c2=O)cc1 -10%, COc1ccc2nc(NC(=O)c3cc(=O)c4cc(C)cc(C)c4o3)sc2c1 -20.6%, COc1ccc(OC)c(NC(=O)CCNS(=O)(=O)c2ccc3c(c2)oc(=O)n3C)c1 -2.12%, Nc1c(C(=O)NCc2ccc(Cl)cc2)sc2nc(-c3ccc(F)cc3)ccc12 -7.94%, Cn1cnc(S(=O)(=O)N2CCCC(C(=O)Nc3ccc(F)cc3Cl)C2)c1 (stereo not given) 6.09%, Cc1ccc(C2c3c(-c4ccccc4O)n[nH]c3C(=O)N2CCCO)cc1 (stereo not given) -2.79%, O=C(NCCn1cc(SCc2ccc(F)cc2)c2ccccc21)c1c(F)cccc1F 14.1%, CCCCc1cc(=O)oc2cc(C)c3c(C)coc3c12 3.67%, COc1cccc(CNC(=O)C2CCN(c3nc4ccc(Cl)cc4[nH]3)CC2)c1 15.9%, CSc1ncc(Cl)c(C(=O)Nc2ccc(S(=O)(=O)N3CCC(C)CC3)cc2)n1 -9.4%, COC(=O)c1ccc(NS(=O)(=O)c2ccc(-n3cccn3)cc2)cc1 3.83%, CCc1ccc(OCCCSc2nc(-c3ccc(C(C)(C)C)cc3)nc3cc(=O)[nH]n23)cc1 -0.0165%

outcome, inactive:
COc1ccc(OCC(=O)Nc2ccc3nn(-c4ccc(OC)cc4)nc3c2)cc1, CCOC(=O)c1sc2ccccc2c1S(=O)(=O)N1CCN(c2cc(C)ccc2C)CC1, CC(=O)c1cccc(NC(=O)Cn2nc(C(F)(F)F)c3c2CCC3)c1, Cc1ccc(C)c(N(C)C(=O)Cc2c(C(=O)O)[nH]c3ccc(Cl)cc23)c1, COc1ccc(N2CCN(S(=O)(=O)c3ccc(-c4cnc(C5CC5)o4)cc3)CC2)cc1, COc1cccc(CNC(=O)CN2C(=O)N(c3cccc(Cl)c3)S(=O)(=O)c3ccccc32)c1OC, CCOc1ccc(NC(=O)Cn2c(=O)n(CCCCC(=O)NCc3ccc4c(c3)OCO4)c(=O)c3ccccc32)cc1, COc1ccc(CCNC(=O)Cc2c(C)c3cc4c(C)coc4cc3oc2=O)cc1OC, Cc1cccc(Cn2nnc3c(=O)[nH]c(C4CCCN(C(=O)c5ccccc5Cl)C4)nc32)c1 (stereo not given), Cc1ccc(N(C)C(=O)CN2C(=O)CCc3cc(S(=O)(=O)N4CCOCC4)ccc32)cc1, N#Cc1nc(/C=C/c2ccc(F)cc2)oc1NCc1ccc(F)cc1, CC(NC(=O)c1ccc(F)cc1)c1nc2ccccc2[nH]1 (stereo not given), CCOc1ccccc1C(=O)NCc1nc2cccnc2n1Cc1ccc(C)cc1, O=C(CN1C(=O)COc2ccc(S(=O)(=O)N3CCCCCC3)cc21)N1CCN(c2ccccc2F)CC1, O=C(c1ccc2c(Cl)c3c(nc2c1)CCCC3)N1CCN(c2cccc(C(F)(F)F)c2)CC1, Cc1ccc(CNC(=O)CN2CCN(Cc3ccc(F)cc3Cl)C2=O)cc1, COc1ccc2c(CNCCc3cccs3)c(C(=O)O)n(Cc3cccc(F)c3)c2c1, COc1cc(OC)c(NC(=O)C2CCN(S(=O)(=O)c3ccc4c(c3)oc(=O)n4C)CC2)cc1Cl, CCc1ccc(Nc2sc(C(=O)c3ccc(F)cc3)c(N)c2S(=O)(=O)c2ccccc2)cc1, Cn1nnnc1SCCNCc1ccccc1OCc1ccccc1F, Cc1ccc(Cn2c(C(=O)Nc3cccc(Cl)c3)cc3sccc32)cc1, CCOC(=O)c1cccc(NC(=O)c2ccc3c(c2)nnn3C2CCCC2)c1, CC(=O)c1ccc(N2CCN(S(=O)(=O)c3ccc4c(c3)CC(C)N4C(=O)C3CCC3)CC2)cc1 (stereo not given)
